Target: T1, RING Finger Protein 4 (RNF4), full-length, wild type (C55S, C95S background) (Rattus norvegicus, UniProt O88846 1-194, C55S | C95S)
T1 construct: Used unlabelled in the FP titration; also called RNF4 WT; source: E. coli BL21 (DE3), pLOU3 vector, purified (Ni-NTA, TEV cleavage)
T1 sequence (looked up): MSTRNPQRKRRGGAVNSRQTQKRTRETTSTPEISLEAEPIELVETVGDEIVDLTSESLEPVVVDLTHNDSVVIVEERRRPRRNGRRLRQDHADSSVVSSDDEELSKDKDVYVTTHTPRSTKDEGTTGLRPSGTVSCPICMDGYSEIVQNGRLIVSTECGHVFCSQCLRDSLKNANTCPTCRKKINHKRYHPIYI
Assay: fluorescence polarisation; unlabelled RNF4 titrated against 1 µM 4×SUMO-Alexa488; 50 mM Tris, 150 mM NaCl, 0.5 mM TCEP, pH 7.5; room temperature, 10 min before measuring FP
Settings: both partners purified

Kd: 1.6 µM
B1: 4×SUMO2 linear fusion (C47A) with a single C-terminal cysteine labelled with Alexa488 (other)
chain: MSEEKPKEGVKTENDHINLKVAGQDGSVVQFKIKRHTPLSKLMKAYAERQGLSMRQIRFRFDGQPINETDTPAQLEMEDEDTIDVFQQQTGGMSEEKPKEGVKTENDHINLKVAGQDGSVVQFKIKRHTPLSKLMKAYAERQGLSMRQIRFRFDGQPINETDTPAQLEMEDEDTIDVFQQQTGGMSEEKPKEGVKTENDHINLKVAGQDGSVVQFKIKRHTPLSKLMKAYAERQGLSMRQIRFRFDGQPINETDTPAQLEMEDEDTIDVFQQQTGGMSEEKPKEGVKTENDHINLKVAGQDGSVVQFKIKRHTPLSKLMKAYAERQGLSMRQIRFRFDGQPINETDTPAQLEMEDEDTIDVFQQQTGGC
modifications: Alexa488 on the single cysteine at the C-terminus
